Source: PubChem BioAssay AID1347073 (National Center for Advancing Translational Sciences (NCATS), 2019)
In all, about 45,000 compounds went through this assay and about 200 (0.44%) were called active. About 7% were inconclusive and are not listed. Calls come from the whole dose curve; as a rule, active = well fitted activation curve with a large enough effect; inconclusive = small, poorly fitted or top-dose-only effect; inactive = no such curve, though single readings can be large or run the other way. The list shows a part of the results.

Test: qHTS of TDP-43 Inhibitors: NCGC Sytravon Library Screen; note: 0% is about no effect; nearly all actives have a fitted effect of over 55% in size
Conditions: yeast TDP-43 toxicity rescue, BacTiter-Glo growth, 24 h; series mostly up to 46.1 µM; growth rescue (activation): at the top concentration
Outline: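 TDP-43-expressing yeast, pregrown in raffinose, seeded at OD600 0.02 in galactose medium with compound for 24 hr at 30 deg C. Growth read by BacTiter-Glo luminescence, so rescue of toxicity appears as activation.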

Compound	growth rescue (activation)
Cc1ccc(C[n+]2cc(-c3ccc(Cl)cc3)n3c2CCC3)cc1	inactive: 1.97%
COc1cc(/C=C(\C#N)C(=O)NC2CCCCC2)ccc1OCc1ccc(C(=O)O)cc1	inactive: 16.6%
COc1ccccc1CNc1nc(NCc2ccccc2)nc2ccsc12	inactive: 9.72%
O=C(NCC(c1cccs1)N1CCOCC1)c1cc([N+](=O)[O-])ccc1Cl (configuration not stated)	inactive: 20.8%
CN(CCO)c1ccc(C=NNc2ccc([N+](=O)[O-])cc2S(=O)(=O)Nc2ccccc2C(=O)O)cc1	inactive: -41.9%
COc1cc(CN2CC(=O)N(c3ccc(C)c(Cl)c3)C2=S)cc(OC)c1OC	inactive: 13.3%
c1ccc(-c2csc(Nc3ncccn3)n2)cc1	inactive: 10.2%
COc1ccc(N2CCN(S(=O)(=O)c3cc(C)ccc3OC)CC2)cc1	inactive: 28.6%
C/C(Cl)=C\COc1cc(C)nc2c(Br)cccc12	inactive: 4.39%
CC1CN(C(=O)COC(=O)c2ccc(F)cc2Cl)CC(C)O1 (configuration not stated)	inactive: -6.26%
O=C1NC2(CCCCCC2)C(=O)N1Cc1ccccc1Br	inactive: 27%
O=C(COc1ccccc1[N+](=O)[O-])NCc1cccnc1	inactive: -6.34%
Cc1ccc(NCc2cccnc2)cc1	inactive: -24.3%
Cc1cc(C)c2[nH]c(=O)c(CN(Cc3cccs3)C(=S)NCc3ccco3)cc2c1	inactive: 28%
Cc1ccccc1-n1c(SCc2c(C)noc2C)nnc1-c1cccnc1	inactive: -17.5%
Cc1cccn2c(=O)c3cc(C(=O)N4CCCC(C)C4)sc3nc12 (configuration not stated)	inactive: 28.5%
CCOC(=O)C1CCN(c2nc(C)cc(C)c2C#N)CC1	inactive: 18.8%
Cc1ccc(S(=O)(=O)Nc2cccc(CP(=O)(c3ccccc3)c3ccccc3)c2)cc1	inactive: 32.1%
COc1ccccc1N(CC(=O)Nc1cccc(C(F)(F)F)c1)S(C)(=O)=O	inactive: 12%
C/C(=N/NC(=O)Nc1ccccc1)c1ccc(C)cc1	inactive: -7.44%
O=C(c1cc(-c2ccc(Br)cc2)on1)N1CCCC1	inactive: 3.8%
Cc1cc(NCCCN)nc(-c2ccccc2O)n1	inactive: -18.1%
CC(=O)Nc1ccc(NC2=C/C(=N/S(=O)(=O)c3cccs3)c3ccccc3C2=O)cc1	inactive: -5.61%

Compound	growth rescue (activation)
CC(=O)Nc1ccc(SCC(=O)Nc2ccc3c(c2)OCCO3)cc1	inactive: -6.69%
Cc1ccc(Cn2c(N)nc3ccccc32)cc1	inactive: 7.55%
Cc1nnc2n(C)c(=O)c3c4c(sc3n12)COC(C)(C)C4	inactive: -7.88%
O=C(CSc1nnc(-c2ccncc2)n1-c1ccccc1)Nc1ccc(C(=O)O)cc1	inactive: -8.19%
CCCn1c(N)c(C(=O)NS(=O)(=O)c2ccc(C)cc2)c(=O)n(C)c1=O	inactive: -10.3%
S=C(NCCCCNC(=S)NCc1ccccc1)NCc1ccccc1	inactive: -10.1%
CC(=O)NC(Cc1cccc(C)c1)C(=O)NC1CCN(S(=O)(=O)c2ccccc2)CC1 (configuration not stated)	inactive: -4.32%
Cc1ccc(S(=O)(=O)/N=C(/Nc2ccc([N+](=O)[O-])cc2)c2ccccc2)cc1	inactive: -10.3%
COC(=O)CNC(=O)c1cc(-c2ccncc2)nc2ccccc12	inactive: -12.4%
Cc1cccn2c(CN[C@@H]3CCCC[C@H]3c3ccccc3)c(C(=O)N3CCOCC3)nc12	inactive: -2.71%
C=CCNC(=O)c1ccc(Cn2cc(C(F)(F)F)ccc2=O)cc1	inactive: 9.51%
CCCOc1cccc(C(=O)NC(=S)Nc2ccc(N3CCN(C)CC3)cc2)c1	inactive: -2.5%
Nc1cccc(C(=O)OCC(=O)Nc2cccc3c2C(=O)c2ccccc2C3=O)c1	inactive: -6.71%
C=C(Br)Cn1c(CCCC)nc2ccccc21	inactive: 1.32%
C/C(CC(=O)Nc1cccnc1)=N/NC(=O)COc1ccc(Cl)cc1Br	inactive: 6.99%
Cc1ccc(-n2ncc3c2CC(C)(C)CC3NC(=O)CCc2c(C)noc2C)cc1 (configuration not stated)	inactive: 27.2%
S=C1NCCOCCOCCOCCNC(=S)N2CCOCCOCCN1CCOCCOCC2	inactive: -8.16%
O=C(CN1C(=O)c2ccccc2C1=O)NCC(=O)OCC(=O)c1cccc([N+](=O)[O-])c1	inactive: 9.95%
NC(=O)CSc1nc2cc(S(=O)(=O)N3CCOCC3)ccc2o1	inactive: 10.1%
CCOC(=O)CC(c1ccc(N)cc1)n1c(C)ccc1C (configuration not stated)	inactive: 6.66%
CCN1CCN(C(=O)CCc2nnc(CCc3ccc(OC)cc3)o2)[C@@H](C)C1=O	inactive: 15.5%
CCOC(=O)c1c(C)oc2ccc(NS(=O)(=O)c3ccc(C(=O)O)cc3)cc12	inactive: -0.633%
COc1c(N2CCN(C(=S)Nc3ccccc3F)C(C)C2)c(F)cc2c(=O)c(C(=O)O)cn(C3CC3)c12 (configuration not stated)	inactive: 8.98%

Compound	growth rescue (activation)
CC(=O)c1ccc(N=Nc2ccc(N(C)C)cc2)cc1	inactive: -15.6%
COc1cc(C(=O)OCCCN=C2NS(=O)(=O)c3ccccc32)cc(OC)c1OC	inactive: 3.53%
Cc1cc(C)c2nc(-c3ccco3)cc(C(=O)O)c2c1	inactive: 15.8%
COc1cc(/C=C2\SC(=S)N(CCC(=O)N3CCN(C)CC3)C2=O)cc(OC)c1OC	inactive: 5.19%
NS(=O)(=O)c1ccc(NC(=O)c2ccc(S(=O)(=O)N3CCCCCC3)cc2)cc1	inactive: 1.82%
Cc1ccc(O)c(-c2cc(-c3cccc(Br)c3)n[nH]2)c1	inactive: -93%
COc1ccc(NC(=O)N[C@@H](CCSC)C(=O)O)cc1Cl	inactive: -1.37%
O=C(O)/C=C/c1ccc(S(=O)(=O)N(CCO)CCO)cc1	inactive: 14.1%
Cc1ccc(OCC(=O)NCCNC(=O)c2ccco2)cc1	inactive: 0.954%
COc1ccc(NC(=O)Nc2ccccc2SC)cc1	inactive: 14.9%
Cn1c(N)c(C(=O)COC(=O)CNS(=O)(=O)c2cccc(Cl)c2)c(=O)n(C)c1=O	inactive: -4.89%
O=C(COC(=O)c1ccc(O)cc1O)NC1CCS(=O)(=O)C1 (configuration not stated)	inactive: 36.1%
Cc1ccccc1Cc1c(C)nc2nc(SCC(=O)NCCCN3CCCC3)nn2c1C	inactive: -1.39%
CC(C)=CCN1CCNC(=O)C1CC(=O)NCc1nc(C)c(C)s1 (configuration not stated)	inactive: -1.15%
Cc1cccnc1C(c1ccc(F)cc1)N(C)C(=O)C1CCN(CCOc2ccc(Cl)cc2Cl)CC1 (configuration not stated)	inactive: -9.85%
COc1ccc(/C=N/NC(=O)CCNc2n[nH]c(=O)[nH]c2=O)c(OC)c1	inactive: 0.0758%
CC(=O)C1=C(O)C(=O)N(c2ccc(S(=O)(=O)Nc3nccs3)cc2)C1c1ccc(F)cc1 (configuration not stated)	inactive: 43.1%
N#Cc1cccc(CN2C=NS(=O)(=O)c3ccccc32)c1	inactive: 0.0781%
COc1ccc(CNC(=O)c2cc(S(=O)(=O)N3CCCCC3)ccc2Cl)cc1OC	inactive: -0.673%
CC(C)C[C@H](NC(=O)c1ccc(OC2CCN(C(=O)C3CC3)CC2)cc1)C(N)=O	inactive: 6.51%
CCOc1ccc(NC(=O)CNC(=O)c2ccc(OC)cc2)cc1	inactive: 5.8%
